# Out of some 310,000 compounds screened, about 2,200 (0.71%) showed an effect of 50% or more. The effect is printed as a negative number. This is one part of the list.
# Target: human ether-à-go-go-related gene (hERG) potassium channel (human, UniProt Q12809)
# Assay: primary screen, population patch clamp on CHO cells stably expressing hERG
# Sequence of human ether-à-go-go-related gene (hERG) potassium channel (Q12809 whole entry, looked up): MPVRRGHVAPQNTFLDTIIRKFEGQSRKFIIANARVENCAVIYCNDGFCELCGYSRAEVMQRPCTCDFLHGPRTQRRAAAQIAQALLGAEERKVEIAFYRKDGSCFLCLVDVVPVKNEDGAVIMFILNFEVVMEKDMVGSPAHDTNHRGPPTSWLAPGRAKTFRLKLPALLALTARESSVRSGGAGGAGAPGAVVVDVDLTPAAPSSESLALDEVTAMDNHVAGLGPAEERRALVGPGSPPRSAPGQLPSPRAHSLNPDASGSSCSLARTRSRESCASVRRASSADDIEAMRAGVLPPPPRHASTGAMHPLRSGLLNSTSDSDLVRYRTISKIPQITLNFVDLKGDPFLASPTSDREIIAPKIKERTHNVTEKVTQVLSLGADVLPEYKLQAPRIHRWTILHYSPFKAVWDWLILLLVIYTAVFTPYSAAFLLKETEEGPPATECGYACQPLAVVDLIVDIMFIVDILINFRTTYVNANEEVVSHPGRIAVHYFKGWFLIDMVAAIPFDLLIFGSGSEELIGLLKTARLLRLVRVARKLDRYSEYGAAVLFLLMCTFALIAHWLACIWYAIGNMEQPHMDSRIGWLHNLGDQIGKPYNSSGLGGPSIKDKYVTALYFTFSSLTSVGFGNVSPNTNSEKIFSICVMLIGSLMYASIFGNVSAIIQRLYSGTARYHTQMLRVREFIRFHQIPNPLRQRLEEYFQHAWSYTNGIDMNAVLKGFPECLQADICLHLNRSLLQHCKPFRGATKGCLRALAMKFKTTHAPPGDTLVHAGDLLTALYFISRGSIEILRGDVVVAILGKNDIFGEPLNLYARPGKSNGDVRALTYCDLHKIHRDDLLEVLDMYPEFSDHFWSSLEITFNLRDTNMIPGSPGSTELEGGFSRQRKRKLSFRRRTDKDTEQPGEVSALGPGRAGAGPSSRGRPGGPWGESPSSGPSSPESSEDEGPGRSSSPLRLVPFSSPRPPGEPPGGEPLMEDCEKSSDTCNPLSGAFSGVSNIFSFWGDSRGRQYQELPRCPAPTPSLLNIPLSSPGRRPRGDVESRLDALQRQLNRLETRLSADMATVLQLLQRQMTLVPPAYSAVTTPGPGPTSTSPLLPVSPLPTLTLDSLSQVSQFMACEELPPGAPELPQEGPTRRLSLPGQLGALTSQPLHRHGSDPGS
row,Structure (SMILES),"hERG current change (%, negative = inhibition) at 1uM"
1,O=C(NCCc1ccccc1Cl)C1CC(=O)N(C2CCCCC2)C1 (stereo not shown),14.6%
2,COC(=O)c1ccc(CNC(=O)COC(=O)Cc2ccsc2)cc1,6.06%
3,CCOc1ccc(Nc2cc(C)nc(N3CCOCC3)n2)cc1,7.56%
4,Cc1cc(O)ccc1NS(=O)(=O)c1ccc2c3c(cccc13)C(=O)N2,1.43%
5,Cc1cccn2c(=O)nc(SCC(=O)NCc3ccc(F)cc3)nc12,4.86%
6,CCC(=O)N(Cc1cc2cc(OC)ccc2[nH]c1=O)c1ccccc1C,16%
7,CCOC(=O)/C=C/c1ccc2c(c1)S(=O)(=O)N(Cc1ccc(OC)cc1)[C@H]2CC(=O)OCC,1.36%
8,CC1=CC(C)C(C[N+]2(C)CCCCC2)C(C)C1.[I-] (stereo not shown),12.7%
9,Cn1c(SCc2c(F)cccc2Cl)nnc1-c1cccs1,-16.3%
10,CCOC(=O)C1(CCc2ccccc2)CCN(Cc2c(O)cccc2OC)CC1,-28.7%
11,COCCn1c(Cc2ccccc2)nnc1SCC(=O)Nc1ccccc1,9.06%
12,Cc1ccc(N2CC(C(=O)NCCN3CCOCC3)CC2=O)cc1 (stereo not shown),14.6%
13,CCN1CCN(CCCN(Cc2ccco2)C(=S)Nc2ccc(C)c(Cl)c2)CC1,-19.1%
14,CCCCN(C)C(=O)Cn1c(=O)oc2cc(S(=O)(=O)N3CC(C)CC(C)C3)ccc21 (stereo not shown),7.88%
15,CCOC(=O)c1c(NC(=O)CSc2nnc(Cc3ccccc3)o2)sc(C)c1C,1.55%
16,O=C(NC(=S)Nc1ccc(O)cc1)C1CCCC1,22.2%
17,CCN1CCCC1CNC(=O)c1cc([N+](=O)[O-])c(N(C)C)cc1OC (stereo not shown),7.8%
18,O=C1OCCC1N1C(=O)c2ccccc2S1(=O)=O (stereo not shown),-5.13%
19,CSc1cc(-c2ccccc2)[nH]c(=O)c1C#N,14%
20,CC(=O)c1ccc(NC(=O)c2ccc3nc(-c4ccco4)c(-c4ccco4)nc3c2)cc1,11.4%
21,COc1ccc(CNS(=O)(=O)c2cc(Br)cc3c2N(C(C)=O)C(C)C3)cc1 (stereo not shown),1.29%
22,O=C(COC(=O)/C=C/c1ccc(S(=O)(=O)N2CCOCC2)cc1)NCc1ccccc1,2.83%

row,Structure (SMILES),"hERG current change (%, negative = inhibition) at 1uM"
1,O=[N+]([O-])c1cccc(-c2noc(COc3ccccc3)n2)c1,17.6%
2,Cn1ccnc1SCC(=O)Nc1sccc1C#N,8.23%
3,O=C(Nc1ccc(-c2csc(Nc3ccc(Cl)cc3)n2)cc1)c1cccc(C(F)(F)F)c1,11.9%
4,Cc1ccc(S(=O)(=O)CCC(=O)OCC(=O)NCc2ccccc2)cc1,1.19%
5,Cc1nn(C(=O)c2ccco2)c(C)c1Sc1ccc(Br)cc1,-0.0162%
6,CC(C)Oc1ccc(S(=O)(=O)N2CCCCC2)cc1NC(=O)CN1C(=O)NC2(CCCC2)C1=O,3.06%
7,COc1ccc(C2(c3ccc(OC)cc3)NC(=O)N(CC(=O)N(C)c3ccccc3)C2=O)cc1,16.1%
8,O=C(CCl)Nc1sccc1C(=O)c1ccccc1,8.5%
9,CC1(C)CC(NC(=O)CCc2nnc(CCCCc3ccccc3)o2)CCO1 (stereo not shown),10.6%
10,CC(=O)Nc1ccc(S(=O)(=O)NCC2CCC(C(=O)NCCC3=CCCCC3)CC2)cc1 (stereo not shown),6.61%
11,O=C1CS/C(=C\[N+](=O)[O-])N1c1ccccc1,-4.14%
12,O=S1(=O)CC(NCc2ccccc2)C(Nc2ccc(Cl)cc2)C1 (stereo not shown),6.33%
13,Clc1cccc(-c2nc3nc4ccccc4nc3n2Cc2ccco2)c1,-4.38%
14,CCC(C(=O)Nc1cc(C(=O)O)ccc1C)c1ccccc1 (stereo not shown),13.2%
15,NS(=O)(=O)c1ccc(O)c(NC(=O)c2ccc([N+](=O)[O-])o2)c1,7.82%
16,COc1ccccc1C(=O)Nc1ccc2nc3n(c(=O)c2c1)CCCC3,-2.02%
17,CS(=O)(=O)c1ccc(C(=O)OCC(=O)N2CCCc3ccccc32)cc1,11.3%
18,CC(C)n1c(CN(C)Cc2ccccc2)nc2c1c(=O)n(C)c(=O)n2C,16.7%
19,COc1ccc(C(O)C(CC(=O)NCCCOC(C)C)C(=O)NCCCOC(C)C)cc1OC (stereo not shown),11.4%
20,S=c1nc2ccccc2c2nc(-c3ccccc3Cl)[nH]n12,11.2%
21,Cc1nnc(NC(=O)CSc2nc3ccccc3o2)s1,13.1%
22,COc1cc(NC(=O)CSc2nnc(-c3ccncc3)o2)cc(OC)c1OC,27%

row,Structure (SMILES),"hERG current change (%, negative = inhibition) at 1uM"
1,CC12CN3CC(C)(CN(C1)C31CCSCC1)C2=O,9.42%
2,CCOC(=O)C1=C(CSc2n[nH]c(N)n2)NC(=O)NC1C (stereo not shown),7.47%
3,Oc1cccc2ccc(/C=C/c3ccccc3Br)nc12,15.8%
4,Cc1cc(NC(=O)c2c(Cl)cnn2C)no1,7.38%
5,O=c1cc(CN2CCCCC2)nc(C2CC2)[nH]1,-1.73%
6,COC(=O)C1=C2SC(C)C(=O)N2C(N)=C(C#N)C1c1ccc(OC)c(OC)c1 (stereo not shown),1.71%
7,COc1ccc(CNC(=O)c2cccc(NC3=NC4CS(=O)(=O)CC4S3)c2)cc1 (stereo not shown),-0.0298%
8,Cc1cc(O)cc(O)c1-c1onc(C(F)(F)F)c1-c1cscn1,11.6%
9,COCCOc1ccc(C(F)(F)F)cc1NC(=O)COC(=O)c1cc[n+]([O-])cc1,5.82%
10,COc1ccc(C(=O)NCc2c(CC(C)C)oc(C)c2C(=O)O)cc1,4.72%
11,COc1ccc(NC(C)=O)cc1S(=O)(=O)NC(Cc1ccccc1)C(=O)O (stereo not shown),9.58%
12,O=c1[nH]c2cc3c(cc2cc1CN(Cc1nnnn1C1CCCC1)C1CCCC1)OCCO3,-3.24%
13,CCOC(=O)C1=C(COC(=O)CCOc2ccc(OC)cc2)NC(=O)NC1C (stereo not shown),0.743%
14,COc1cccc(CN2CCCCC2C(=O)O)c1 (stereo not shown),8.26%
15,O=C1SC(c2ccccc2)=C/C1=C\N1CCCCC1,1.93%
16,Cc1nnc(SCc2nc3ccccc3[nH]2)s1,-13.5%
17,CCOc1ccc(N(CC(=O)Nc2ccccc2F)S(=O)(=O)c2c(C)[nH]c(=O)[nH]c2=O)cc1,10%
18,COc1ccc(N2C(=O)CC(NC3CC3)C2=O)cc1 (stereo not shown),16.5%
19,O=C(CCSc1ccccc1)N1CCN(c2ccccc2)CC1,7.48%
20,CN1CCN(C(=O)CC2C(=O)NCCN2Cc2ccc(-c3ccccc3)cc2)CC1 (stereo not shown),5.82%
21,CC(=O)c1cccc(NC(=O)COC(=O)CC2CC3CCC2C3)c1 (stereo not shown),4.89%
22,O=C(Oc1c(CN2CCOCC2)cc(Cl)c2cccnc12)c1ccccc1F,11.2%

row,Structure (SMILES),"hERG current change (%, negative = inhibition) at 1uM"
1,COCCCC1CCN(C(=O)c2cc(COc3ccc(C)nc3)on2)CC1,8.18%
2,Cc1ccsc1C(=O)C1CCCN(Cc2cnc(N3CCOCC3)s2)C1 (stereo not shown),-7.04%
3,O=c1c2cnn(-c3ccccc3)c2nc(-c2cccs2)n1-c1cccc(Cl)c1,9.21%
4,Cc1ccc(-c2csc(N3CCN(c4cc5c(cc4Cl)nc(-c4ccncc4)n5CCN4CCCCC4)CC3)n2)cc1,18.9%
5,CN1C(=O)NC(c2cccc(O)c2)C(C(=O)c2cccs2)C1(O)C(F)(F)F (stereo not shown),15.4%
6,O=C(Nc1ccc(F)cc1F)Nc1csc2ccccc12,12.6%
7,O=C(Nc1ccnc(-c2cccnc2)n1)c1cccs1,-8.54%
8,COc1ccc(NC(=O)C2C3C=CC4(O3)C2C(=O)N(CCN2CCCCC2C)C4C(=O)NC2CCCC(C)C2C)cc1 (stereo not shown),5.26%
9,Nc1ccc(S(=O)(=O)[O-])c[nH+]1,6.57%
10,O=C(OCC(=O)N1CCCCC1)c1cc2ccccc2cc1O,8.26%
11,O=C(Cc1ccccc1)Nc1cccc(NC(=O)c2ccccc2)c1,15.4%
12,CN1CCN(C(=O)/C(=C/c2cn(S(=O)(=O)N(C)C)c3ccccc23)NC(=O)c2ccccc2Cl)CC1,14.3%
13,O=C(CCNS(=O)(=O)c1ccccc1C(F)(F)F)NCCCSc1ccccc1,-2.39%
14,CCOC(=O)c1ccc(CNC(=O)C(Cc2c[nH]c3ccccc23)NC(C)=O)o1 (stereo not shown),-6.39%
15,CCC(C)NC(=O)c1oc2ccc(S(=O)(=O)N3CCC4(CC3)OCCO4)cc2c1C (stereo not shown),9.01%
16,CC1CCOC(c2coc3ccccc3c2=O)O1 (stereo not shown),6.57%
17,CCc1cccc(NC(=O)C2CCCN(S(=O)(=O)c3ccc4[nH]c(=O)ccc4c3)C2)c1 (stereo not shown),-0.861%
18,CC(C)(C)c1cc(NS(=O)(=O)c2ccc3c(c2)OCCO3)on1,12.4%
19,CCOC(=O)CNC(=O)CSc1nc2cccnc2n1CC,2.76%
20,O=C(O)c1ccc(N=Cc2c(O)ccc3oc4c(c23)CCCC4)cc1,9.7%
21,Cc1ccc(N(C(C)C(=O)Nc2ccc(S(=O)(=O)N3CCOCC3)cc2)S(C)(=O)=O)cc1 (stereo not shown),6.43%
22,Cc1cc2oc(=O)cc(CN3CCOCC3)c2c(C)c1Cl,0.624%

# Source: publication PMC4336329 (PLoS ONE, 2015)
